{"source": "paper PMC4336329", "about": "(PLoS ONE, 2015)", "note": "Screen size: about 310,000 compounds; about 14,000 (4.5%) showed an effect of 50% or more. Effects have a minus sign here. The list shows a part of the results.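 Further: peak tail current of the secondary pulse compared with the same well before compound.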"}
{"target": "human ether-à-go-go-related gene (hERG) potassium channel (human, UniProt Q12809)", "sequence (Q12809 whole entry, looked up)": "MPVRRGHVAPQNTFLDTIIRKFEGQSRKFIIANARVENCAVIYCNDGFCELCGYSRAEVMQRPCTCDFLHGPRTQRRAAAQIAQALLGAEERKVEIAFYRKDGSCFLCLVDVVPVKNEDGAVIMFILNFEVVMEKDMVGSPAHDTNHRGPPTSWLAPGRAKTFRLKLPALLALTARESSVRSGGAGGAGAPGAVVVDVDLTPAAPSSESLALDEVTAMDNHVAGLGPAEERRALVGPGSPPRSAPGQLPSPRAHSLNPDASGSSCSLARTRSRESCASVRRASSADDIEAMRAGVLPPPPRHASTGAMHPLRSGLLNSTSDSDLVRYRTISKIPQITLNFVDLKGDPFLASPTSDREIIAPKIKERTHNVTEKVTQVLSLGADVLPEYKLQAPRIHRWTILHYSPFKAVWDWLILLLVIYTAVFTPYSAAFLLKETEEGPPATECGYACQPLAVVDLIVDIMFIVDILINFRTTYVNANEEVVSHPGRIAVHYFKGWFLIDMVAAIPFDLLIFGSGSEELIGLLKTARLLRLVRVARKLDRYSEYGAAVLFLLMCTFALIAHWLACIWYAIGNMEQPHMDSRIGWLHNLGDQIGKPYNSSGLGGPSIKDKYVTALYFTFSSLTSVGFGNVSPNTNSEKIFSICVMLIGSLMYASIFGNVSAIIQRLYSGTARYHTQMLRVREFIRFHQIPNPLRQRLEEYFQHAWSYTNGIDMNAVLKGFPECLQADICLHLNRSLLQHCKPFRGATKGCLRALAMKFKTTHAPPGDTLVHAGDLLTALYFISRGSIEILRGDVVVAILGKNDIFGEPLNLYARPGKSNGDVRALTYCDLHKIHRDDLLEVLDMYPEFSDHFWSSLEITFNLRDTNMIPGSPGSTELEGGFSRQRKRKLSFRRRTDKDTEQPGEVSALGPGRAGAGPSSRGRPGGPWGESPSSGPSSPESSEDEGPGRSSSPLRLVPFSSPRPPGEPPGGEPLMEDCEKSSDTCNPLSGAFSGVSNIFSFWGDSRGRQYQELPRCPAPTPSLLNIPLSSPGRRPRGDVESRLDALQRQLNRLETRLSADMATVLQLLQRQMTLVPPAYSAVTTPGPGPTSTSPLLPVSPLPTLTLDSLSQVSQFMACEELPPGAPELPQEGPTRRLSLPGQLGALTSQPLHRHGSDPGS", "assay": "primary screen, population patch clamp on CHO cells stably expressing hERG", "units": {"hERG current change (%, negative = inhibition) at 10uM": "%"}}
{"smiles": "CCOC(=O)C(C)Oc1c(Br)cc(C2NC(=O)NC(C)=C2C(C)=O)cc1OCC", "note": "(stereo not shown)", "hERG current change (%, negative = inhibition) at 10uM": 3.1}
{"smiles": "COc1cc2nc(C)sc2cc1SC", "hERG current change (%, negative = inhibition) at 10uM": -19.6}
{"smiles": "O=C(Nc1ccccc1)c1ccc(-c2ccccc2Cl)o1", "hERG current change (%, negative = inhibition) at 10uM": 18}
{"smiles": "COc1ccc(-c2nc(CS(=O)(=O)CC(=O)NC3CCC(C)CC3)c(C)o2)cc1", "note": "(stereo not shown)", "hERG current change (%, negative = inhibition) at 10uM": 7.8}
{"smiles": "COc1ccc(NC(=O)/C(C#N)=C/c2ccc3c(c2)n(C)c(=O)n3C)cc1", "hERG current change (%, negative = inhibition) at 10uM": 6.53}
{"smiles": "N#Cc1ccsc1NC(=O)COC(=O)c1ccc2ccccc2c1", "hERG current change (%, negative = inhibition) at 10uM": -2.17}
{"smiles": "CC(/C=N/NC(=O)c1cccnc1)=C\\c1ccccc1", "hERG current change (%, negative = inhibition) at 10uM": -14.8}
{"smiles": "O=C(NCc1nc(-c2ccc(C(F)(F)F)cc2)no1)Nc1ccc(OC(F)(F)F)cc1", "hERG current change (%, negative = inhibition) at 10uM": 12.9}
{"smiles": "Cc1cccnc1NC(=O)CCNC(=O)c1ccc(Br)cc1", "hERG current change (%, negative = inhibition) at 10uM": 10.1}
{"smiles": "CC(C)(C)c1ccc(C(=O)NCCC(=O)NC2=NCCS2)cc1", "hERG current change (%, negative = inhibition) at 10uM": 5.69}
{"smiles": "CC(C)COc1ccc(C(=O)N/C(=C\\c2cccc([N+](=O)[O-])c2)C(=O)OC(C)C)cc1", "hERG current change (%, negative = inhibition) at 10uM": 6.7}
{"smiles": "CCCC(=O)Nc1nnc(CC(=O)OCC)s1", "hERG current change (%, negative = inhibition) at 10uM": 5.78}
{"smiles": "CC(C)COc1ccc(C(=O)OCCN2CCCCC2)cc1.Cl", "hERG current change (%, negative = inhibition) at 10uM": -35.6}
{"smiles": "O=C1c2cccnc2C(=O)N1C1CCCCC1", "hERG current change (%, negative = inhibition) at 10uM": 9.65}
{"smiles": "CCOc1ccccc1NC(=O)c1ccccc1-c1ccccc1", "hERG current change (%, negative = inhibition) at 10uM": -20.7}
{"smiles": "O=C(CSc1ccccc1)N1CCN(c2ccc(F)cc2)CC1", "hERG current change (%, negative = inhibition) at 10uM": 10.8}
{"smiles": "O=C(c1ccco1)N1CCN(c2cc(=O)n(C3CCCCC3)c(=O)[nH]2)CC1", "hERG current change (%, negative = inhibition) at 10uM": -14}
{"smiles": "CN1CCC(=C2c3ccccc3CCc3sccc32)CC1.O=C(O)/C=C\\C(=O)O", "hERG current change (%, negative = inhibition) at 10uM": -29.4}
{"smiles": "CN(c1ccccc1)S(=O)(=O)c1cccc(C(=O)NCCc2c[nH]c3ccccc23)c1", "hERG current change (%, negative = inhibition) at 10uM": -15}
{"smiles": "CNC(=O)COC(=O)c1cccc(S(=O)(=O)N2CCN(c3ccc(F)cc3)CC2)c1", "hERG current change (%, negative = inhibition) at 10uM": -0.232}
{"smiles": "CC1(C)CC(=O)C(N=Nc2ccc(C(F)(F)F)cc2[N+](=O)[O-])=C(O)C1", "hERG current change (%, negative = inhibition) at 10uM": 16.7}
{"smiles": "CC(C)(C)OC(=O)NC(Cc1ccccc1)C(=O)NC(CSC1CCCCO1)C(=O)NN", "note": "(stereo not shown)", "hERG current change (%, negative = inhibition) at 10uM": 11.5}
{"smiles": "O=C(Cc1ccsc1)NCC(c1ccco1)N1CCCCC1", "note": "(stereo not shown)", "hERG current change (%, negative = inhibition) at 10uM": -15.5}
{"smiles": "CCOc1ccc(C2=C(C=C(C#N)C#N)C(c3ccccc3)c3ccccc3O2)cc1", "note": "(stereo not shown)", "hERG current change (%, negative = inhibition) at 10uM": -5.72}
{"smiles": "O=C(NNC(=S)Nc1ccccc1)c1ccncc1", "hERG current change (%, negative = inhibition) at 10uM": 23.1}
{"smiles": "CNC(=O)NNC(=O)c1nc(-c2ccccc2)c(C)o1", "hERG current change (%, negative = inhibition) at 10uM": 17.3}
{"smiles": "O=c1c2ccccc2nc(-c2ccccc2)n1-c1ccccc1O", "hERG current change (%, negative = inhibition) at 10uM": 16.1}
{"smiles": "COc1ccc(-c2nc3ccccc3n2OC(=O)N(C)C)cc1", "hERG current change (%, negative = inhibition) at 10uM": -2.4}
{"smiles": "O=c1c2ccccc2[nH]c2ccccc12", "hERG current change (%, negative = inhibition) at 10uM": 11.3}
{"smiles": "CS(=O)(=O)N(CC(=O)NCCSCc1c(F)cccc1Cl)c1cccc([N+](=O)[O-])c1", "hERG current change (%, negative = inhibition) at 10uM": -15.9}
{"smiles": "O=C(c1ccc(Cl)cc1)N1CCCCC(Cl)C1=O", "note": "(stereo not shown)", "hERG current change (%, negative = inhibition) at 10uM": 7.57}
{"smiles": "CC(=O)NC(=S)Nc1ccc(NC(=O)COc2ccc(Cl)cc2)cc1", "hERG current change (%, negative = inhibition) at 10uM": 8.5}
{"smiles": "COc1ccc(C)cc1-n1nnnc1SCn1nnc2ccccc2c1=O", "hERG current change (%, negative = inhibition) at 10uM": 1.94}
{"smiles": "COc1cc(Nc2nc3ccccc3nc2NS(=O)(=O)c2ccc([N+](=O)[O-])cc2)cc(OC)c1OC", "hERG current change (%, negative = inhibition) at 10uM": -30.4}
{"smiles": "Cc1cc(N/N=C2\\CC(C)CC(C)(C)C2)nc2ccccc12", "note": "(stereo not shown)", "hERG current change (%, negative = inhibition) at 10uM": -7.04}
{"smiles": "COc1ccc(C2(c3ccc(OC)cc3)NC(=O)N(CC(=O)NC(C)C)C2=O)cc1", "hERG current change (%, negative = inhibition) at 10uM": -2.58}
{"smiles": "O=S(=O)([O-])c1cc(O)c2c(O)c(N=Nc3cc(Cl)ccc3O)c(S(=O)(=O)[O-])cc2c1.[Na+]", "hERG current change (%, negative = inhibition) at 10uM": 9.45}
{"smiles": "O=C(C(NS(=O)(=O)c1cccc2nsnc12)c1ccccc1)N1CCN(c2ccccn2)CC1", "note": "(stereo not shown)", "hERG current change (%, negative = inhibition) at 10uM": -64.8}
{"smiles": "Cc1ccc(-c2cc(C(F)F)n3ncc(C(=O)N4CCN5CCCC5C4)c3n2)cc1", "note": "(stereo not shown)", "hERG current change (%, negative = inhibition) at 10uM": -33}
{"smiles": "N#Cc1c(-c2ccco2)c2c([nH]c1=S)CCCC2", "hERG current change (%, negative = inhibition) at 10uM": 17.5}
{"smiles": "COc1ccc(-n2nc3cc(C)c(NC(C)=O)cc3n2)cc1", "hERG current change (%, negative = inhibition) at 10uM": 9.45}
{"smiles": "Cc1nn(-c2cc(C(F)(F)F)ccn2)c(=O)o1", "hERG current change (%, negative = inhibition) at 10uM": 22.8}
{"smiles": "O=C1S/C(=C\\c2ccc(Cl)cc2)C(=O)N1CCn1cnnn1", "hERG current change (%, negative = inhibition) at 10uM": -0.978}
{"smiles": "CCOC(=O)N1CCN(Cc2cc(=O)oc3ccc(Cl)cc23)CC1", "hERG current change (%, negative = inhibition) at 10uM": -26.9}
{"smiles": "CCCNC(=O)N1[C@H]2CC[C@@H]1C(C(=O)OC)=C(c1ccc3ccccc3c1)C2", "hERG current change (%, negative = inhibition) at 10uM": -3.59}
{"smiles": "Cc1ccc(-n2nnnc2SCc2ccccn2)cc1C", "hERG current change (%, negative = inhibition) at 10uM": 8.12}
{"smiles": "COc1ccc(Nc2cc(=O)n(-c3ccccc3)c3c2c(=O)n(C)c(=O)n3C)cc1", "hERG current change (%, negative = inhibition) at 10uM": 12.9}
{"smiles": "O=C(COC(=O)CC1CC2CCC1C2)NC(=O)NCc1ccco1", "note": "(stereo not shown)", "hERG current change (%, negative = inhibition) at 10uM": -4.89}
{"smiles": "CC1CN(S(=O)(=O)c2cccc(C(=O)Nc3cc(Cl)ccc3N3CCOCC3)c2)CC(C)O1", "note": "(stereo not shown)", "hERG current change (%, negative = inhibition) at 10uM": -39.7}
{"smiles": "CCO[C@H]1OC(C(=O)N2CCOCC2)=C[C@@H](c2cn(C(C)=O)c3ccccc23)[C@@H]1CCCO", "hERG current change (%, negative = inhibition) at 10uM": -4.1}
{"smiles": "CCN1C(=O)N[C@@H](c2cccc(F)c2)C(C(C)=O)=C1C", "hERG current change (%, negative = inhibition) at 10uM": 5.39}
{"smiles": "O=C(C1CCN(S(=O)(=O)c2cccc3nsnc23)CC1)N1CCN(c2ccccc2F)CC1", "hERG current change (%, negative = inhibition) at 10uM": -6.85}
{"smiles": "Cc1cc2c(cc1C)CSC(c1ccccc1OC(=O)C(C)C)SC2", "hERG current change (%, negative = inhibition) at 10uM": 7.27}
{"smiles": "COc1ccc(Cl)cc1NC(=O)C(=O)N/N=C/c1cc(C)n(-c2ccc(C)cc2)c1C", "hERG current change (%, negative = inhibition) at 10uM": -4.41}
{"smiles": "CSc1nsc(/C=C/Nc2cccc(Cl)c2)c1C#N", "hERG current change (%, negative = inhibition) at 10uM": 9.57}
